Test results published in PubChem BioAssay AID504706 (National Center for Advancing Translational Sciences (NCATS), 2011).
Out of some 320,000 compounds screened, about 200 (0.062%) were called active. The inconclusive results got no clear call from the source; some entries with a clear call stand among them for comparison. The call rests on the fitted dose curve; in most records, active means well fitted activation curve with a large enough effect; inconclusive means small, poorly fitted or top-dose-only effect; inactive means no such curve, though single readings can be large or run the other way. No potency is given beside an inconclusive call; the fits are too rough.

experiment: qHTS assay for re-activators of p53 using a Luc reporter; settings: H1299 p53-A138V BP100-luciferase reporter, luminescence, 24 h; series mostly up to 92.2 µM; further: nearly all actives have a fitted effect of over 45% in size
How it was run: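 H1299 (p53-null), stable ts p53-A138V + BP100-Luc; 1000 cells/well, Opti-MEM/10% FBS; cpd 4 pt, 1:5; 24 h, 37 deg C, 5% CO2; detection reagent 10 min RT; luminescence.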
Potency means the concentration at half of the fitted maximal effect; tags describe the fitted curve by direction and shape.

SMILES | Potency
CCOC(=O)c1cnc(-n2nc(C)cc2C)nc1Oc1ccccc1F | inactive
CCOC(=O)CSC1=C(C#N)C(c2ccc(C)s2)CC(=O)N1 (stereo not given) | inactive
CCCCNC(=O)C1CCN(Cc2ccc(OCc3ccccc3)cc2)CC1 | inconclusive [activator, partial curve, poor fit]
Cc1ccc(OCCC(=O)OCC(=O)N2CCN(S(=O)(=O)c3ccc(Cl)cc3)CC2)cc1 | inconclusive [activator, single point]
C=CCn1c(SCC(=O)Nc2sccc2C(N)=O)nc2ccccc2c1=O | inactive
COC(=O)c1cccc(NC(=S)NCCC2=CCCCC2)c1 | inactive
COc1ccccc1CN1CC(C(=O)N2CCC(OC)CC2)CCC1=O (stereo not given) | inconclusive [activator, single point]
Cc1ccc(-c2nc3cnccn3c2Nc2ccc3c(c2)OCCO3)o1 | inconclusive [activator, full curve, poor fit]
CCOC(=O)c1sc2nc3c(SCCC(=O)O)cc(C(=O)c4cc(OC)ccc4O)cn3c(=O)c2c1C | inactive
CSC1=NCCN1C(=O)c1ccc(S(=O)(=O)N2CCCC2)cc1 | inconclusive [activator, single point]
COc1cccc(C(=O)Oc2ccccc2/C=C\C(=O)c2cc3ccccc3o2)c1 | inconclusive [activator, partial curve, poor fit]
CC(NC(=O)CN1C(=O)NC2(CCCCCC2)C1=O)c1ccccc1 (stereo not given) | inconclusive [activator, partial curve, poor fit]
OC[C@H]1O[C@@H](n2cnc3c(Nc4ccccc4)ncnc32)[C@H](O)[C@@H]1O | inconclusive [activator, partial curve, poor fit]
Cc1ccnc(NS(=O)(=O)c2ccc(NC(=O)CSc3nc(-c4ccccc4)cc(=O)[nH]3)cc2)n1 | inactive
CC(C)[C@H](NC(=O)c1ccccc1)C(=O)Nc1ccc2c(c1)OCO2 | inactive
CC1CCCN(c2ccc(C(=O)NCc3cccs3)cn2)C1 (stereo not given) | inconclusive [activator, partial curve, poor fit]
CC(C)Cn1c(N2CCN(C(=O)c3cccs3)CC2)nc2ccccc21 | inconclusive [activator, single point]
COc1ccc(CCNc2ncnc3cc(OC)c(OC)cc23)cc1OC | inactive
N=c1oc2c3c4c(cc2cc1C(=O)Nc1ccccc1)CCCN4CCC3 | inconclusive [activator, full curve, poor fit]
C=CCNC(=S)Nc1cccc2ccccc12 | inactive
COc1cccc(OCc2cc(C(=O)NCc3ccccn3)no2)c1 | inconclusive [activator, full curve, poor fit]
O=C(CCCOc1ccccc1)NCC1CCCO1 (stereo not given) | inconclusive [activator, single point]
Cc1cc(Cl)c2oc(C(=O)N(C)C(C)c3ccccn3)c(C)c2c1 (stereo not given) | inconclusive [activator, single point]
COc1ccccc1/C=N\Nc1ccccc1[N+](=O)[O-] | inconclusive [activator, full curve, poor fit]

SMILES | Potency
O=C1C(Cl)=C(Nc2ccccc2O)C(=O)N1c1ccccc1 | inconclusive [activator, partial curve, poor fit]
CCc1ccc(C(=O)CSc2n[nH]c(C)n2)cc1 | inconclusive [activator, partial curve, poor fit]
O=C(CNC(=O)c1ccc([N+](=O)[O-])cc1)c1ccccc1 | inconclusive [activator, single point]
C=CCNC(=S)N1CCc2c([nH]c3ccccc23)C1C (stereo not given) | inactive
COc1ccc(CNC(=O)c2c[nH]c3c(OC)cc(OC)cc3c2=O)cc1 | inconclusive [activator, single point]
Fc1ccc(OCc2nc(-c3ccc(Br)o3)no2)c(F)c1 | inconclusive [activator, single point]
CCN(CC)c1ccc(NC(=O)c2ccc(Br)o2)cc1 | inconclusive [activator, partial curve, poor fit]
O=C(NC(=S)Nc1cc([N+](=O)[O-])ccc1Cl)c1ccccc1 | inconclusive [activator, full curve, poor fit]
CCOC(=O)c1ccc(NC2c3ccccc3C(=O)N2c2ccccn2)cc1 (stereo not given) | inactive
CCN(CC)C(=O)CCCOc1ccc(Cl)cc1Cl | inconclusive [activator, partial curve, poor fit]
CCN(CC)c1ccc(/C=N/OC(C)C(=O)Nc2ccc(C)cc2)cc1 (stereo not given) | inconclusive [activator, single point]
COc1ccc(C(=O)Nc2nnc(C3=COCCO3)o2)cc1 | inconclusive [activator, single point]
CC(C)COc1ccc(C(=O)Nc2ccccc2[N+](=O)[O-])cc1 | inconclusive [activator, full curve, poor fit]
Cn1c(SCC(=O)Nc2ccc(N3CCOCC3)cc2)nnc1C(F)(F)F | inconclusive [activator, single point]
Cc1nn(CC(=O)Nc2ccc(Cl)cc2)c(=O)c2cc(-c3ccccc3)nn12 | inactive
Cc1ccc(-c2cc(-c3ccccc3Cl)[nH]n2)c(O)c1 | inconclusive [activator, partial curve, poor fit]
Cc1nc(N/N=C\c2ccc3c(c2)OCO3)sc1C | inconclusive [activator, partial curve, poor fit]
CCCc1cc(=O)n2[nH]c(-c3ccc(C)cc3)cc2n1 | inconclusive [activator, partial curve, poor fit]
COC(=O)CCCSc1nccn1-c1ccccc1 | inactive
COc1ccc(-c2nnc(SCC(=O)N3CCCC3)o2)c(OC)c1 | inconclusive [activator, full curve, poor fit]
O=C(NCCNc1ccccc1[N+](=O)[O-])c1cc(F)c(F)cc1Cl | inconclusive [activator, single point]
COc1ccc(-c2nnc(SCC(=O)c3ccc(C)o3)o2)cc1 | inactive
CCN(CC(=O)Nc1c(F)cccc1F)C(=O)c1ccc(C2SCCS2)cc1 | inactive
Cc1ccccc1C1=NC(c2ccc(F)cc2F)ON1 (stereo not given) | inconclusive [activator, partial curve]

SMILES | Potency
c1ccc2c(c1)Nc1nccnc1S2 | inconclusive [activator, partial curve, poor fit]
Cc1c(/C=C/C(=O)c2ccc(Cl)s2)cnn1C | inconclusive [activator, partial curve, poor fit]
COc1ccc(Cc2nnc(NC(=O)CSc3ccc(C)cc3)s2)cc1 | inactive
c1ccc(NCc2nc3ccccc3n2CCOc2ccccc2)cc1 | inconclusive [activator, partial curve, poor fit]
COc1ccc(N(CC(=O)N2CCN(Cc3ccccc3)CC2)S(C)(=O)=O)cc1Cl | inconclusive [activator, single point]
Cn1c(SCc2nnc3n2CCCCC3)nc2ccccc21 | inactive
Cc1c(-c2ccccc2)nnn1-c1ccc(F)cc1F | inconclusive [activator, partial curve, poor fit]
N#C/C(=C\c1ccc[nH]1)C(=O)Nc1ccccc1Cl | inconclusive [activator, single point]
CC(=O)OCCNc1cc(SC(C)C)c2nonc2c1[N+](=O)[O-] | inactive
COC(=O)CSc1nc2ccc(NC(C)=O)cc2s1 | inactive
COc1cccc(NC(=O)c2ncc(Cl)c(Cl)c2Cl)c1 | inconclusive [activator, partial curve]
CCOc1ccc2cc(C3CC(c4ccco4)=NN3S(C)(=O)=O)c(Cl)nc2c1 (stereo not given) | inactive
O=C(Nc1ccc(Cl)c(Cl)c1)C1=Cc2ccccc2OC1 | inconclusive [activator, full curve, poor fit]
Cc1cc(C(=O)Nc2ccccn2)no1 | inconclusive [activator, single point]
C/C(=N\NC(N)=O)C1CC(Cc2ccccc2)C(=O)O1 (stereo not given) | inconclusive [activator, single point]
Cc1csc2nc(CSc3ccc(Cl)cc3)cn12 | inconclusive [activator, partial curve, poor fit]
CCN(CC)c1ccc(/C=N/Nc2nc3ccccc3[nH]2)cc1 | inconclusive [activator, partial curve, poor fit]
CCCCC(CC)C(=O)Nc1ncc([N+](=O)[O-])s1 (stereo not given) | inactive
COc1ccc2nc3sc(C(=O)NCc4cccs4)c(N)c3cc2c1 | inconclusive [activator, partial curve, poor fit]
Cc1ccc(/C=C/C(=O)NCc2cccs2)cc1 | inconclusive [activator, partial curve, poor fit]
CCCCC[C@H]1CN(CCCC)C(=O)[C@@H]1CC(=O)NCc1ccc(OC)cc1 | inactive
N/C(=N\OC(=O)c1ccccc1Cl)c1cccnc1 | inconclusive [activator, partial curve, poor fit]
